# Assay results published in PubChem BioAssay AID1508642 (National Center for Advancing Translational Sciences (NCATS), 2021).
# The whole screen tested about 43,000 compounds, of which about 200 (0.47%) were called active. Inconclusive results (about 12%) are left out. Calls come from the whole dose curve; as a rule, active = well fitted cell-killing curve with a large enough effect; inconclusive = small, poorly fitted or top-dose-only effect, or effect the other way; inactive = flat fitted curve, though single readings scatter. The list shows a part of the results.
# Experiment: Cell viability qHTS assay in S16 Pmp22-F2sN cells; note: nearly all actives have a fitted effect of over 65% in size
# Settings: S16 Pmp22-F2sN Schwann cells viability, CellTiter-Glo, 24 h; series mostly up to 57.5 µM; activity change, negative = cytotoxicity: at the top concentration
# How it was run: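 S16 Pmp22-F2sN Schwann cells (500-1,000/well) in phenol-red-free DMEM with 10% FBS received 23 nL compound by pin tool for 24 h at 37 °C. Viability was then read as CellTiter-Glo luminescence after 15 min at room temperature.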
# % is set by controls: 0 for no effect and ±100 for the full control effect; potency is the fitted concentration of half-maximal effect.
SMILES,"activity change, negative = cytotoxicity",Potency
CCC(=O)N1c2ccccc2CC1C(=O)NCc1cc(OC)ccc1OC (stereo unspecified),inactive: 13.9%,
CCN(C(=O)Cn1c(=O)n(-c2ccccc2)c(=O)c2ccc(C(=O)NCc3ccc4c(c3)OCO4)cc21)c1cccc(C)c1,inactive: 5.09%,
CCOc1ccc(NC(=O)c2cc(S(=O)(=O)N3CCc4ccccc43)ccc2F)cc1,inactive: -24.3%,
CC(C)c1ccc(NC(=O)c2cc(S(=O)(=O)N(C)C3CCCCC3)ccc2F)cc1,inactive: -11.6%,
CCCCn1cnc2cc(NCc3ccc(OCC)cc3)ccc21,inactive: -4.47%,
O=C(CC1C(=O)N(c2ccc(F)cc2)C(=O)N1Cc1ccc2c(c1)OCO2)Nc1ccc(Cl)cc1 (stereo unspecified),inactive: 4.43%,
Cc1ccc(-n2cc(C(=O)Oc3ccc(F)cc3)c3ccccc3c2=O)cc1,inactive: -2.11%,
Cc1ccc2c(=O)cc(C(=O)Nc3ccc(S(=O)(=O)Nc4onc(C)c4C)cc3)oc2c1C,inactive: 6.43%,
O=C(CSc1oc(-c2ccccc2)nc1S(=O)(=O)c1ccc(Cl)cc1)c1ccccc1,inactive: 3.25%,
Cc1cc(C)nc(-n2nc(C)c3c2N(Cc2ccccc2)C(=O)CC3c2ccc(Cl)cc2)n1 (stereo unspecified),inactive: -26.3%,
Cc1ccc(NC(=O)Nc2nnc(SCC(=O)Nc3ccc(F)cc3F)s2)cc1,inactive: 0.198%,
CCc1ccc(NC(=O)c2cc(S(=O)(=O)N3CCCCCC3)ccc2F)cc1,inactive: 15%,
Cc1cccc(C)c1NC(=O)c1csc2c1CCCC2,inactive: 6.71%,
COc1ccccc1NC(=O)C(=O)c1cc(C)n(-c2ccccc2F)c1C,inactive: -1.66%,
O=C(NCCCc1nc2ccccc2n1Cc1cccc(Cl)c1)c1ccco1,inactive: 3.11%,
CCCCN1CC(c2nc3ccccc3n2CCCCOc2ccc(C)cc2C)CC1=O (stereo unspecified),inactive: -15.9%,
CC(=O)OCc1cnc(C)c2oc(=O)c(C(=O)Nc3cccc(F)c3)cc12,inactive: 6.63%,
COc1cc(Cl)c(C)cc1NC(=O)c1cc2ccc3cccnc3c2[nH]1,inactive: -1.25%,
O=C(c1cc(=O)c2cc(Cl)ccc2o1)N(Cc1ccccc1)C1CCS(=O)(=O)C1 (stereo unspecified),inactive: 16.3%,
COc1ccc(NC(=O)CSc2nc3nc(C)c(Cc4ccc(C)cc4)c(C)n3n2)cc1OC,inactive: 0.24%,
COc1ccc(Cl)cc1-n1nnc(-c2nc(-c3ccc4c(c3)OCO4)no2)c1C,inactive: -2.31%,
CCCNC(=O)C1CCC(Cn2c(=O)c3sccc3n(Cc3ccccc3C)c2=O)CC1 (stereo unspecified),inactive: 6.47%,
Cc1nc(N2CCCC2)c2c(C(=O)Nc3cccc(Cl)c3C)c(C)oc2n1,inactive: -2.1%,
Cc1ccc(-n2ncc3c(NCCCc4ccccc4)ncnc32)cc1,inactive: 1.41%,

SMILES,"activity change, negative = cytotoxicity",Potency
COc1cccc(NC(=O)c2oc3ccccc3c2NC(=O)c2ccc(C(F)(F)F)cc2)c1,inactive: 0.809%,
O=C(CN1CCCN(Cc2ccc(Cl)cc2)S1(=O)=O)Nc1ccccc1F,inactive: 16.1%,
COc1cccc2c1Oc1ncccc1N(C(=O)CCC(=O)NCc1ccc(N(C)C)cc1)C2,inactive: -0.452%,
Cc1ccc(C)c(NC(=O)Cn2cc(C(=O)C3CCCCC3)c3ccccc32)c1,inactive: -2.93%,
Cc1ccc2[nH]c3c(=O)n(CC(=O)N(C)c4cc(Cl)ccc4C)ncc3c2c1,inactive: 0.135%,
O=C(c1ccc2c(c1)N(Cc1cccc(Cl)c1)C(=O)c1ccccc1S2(=O)=O)N1CCCCC1,inactive: -16.7%,
CCOc1ccc(NC(=O)N2CC=C(c3c[nH]c4ccccc34)CC2)cc1,inactive: 3.08%,
COc1ccc(-n2c(=O)c3c4c(sc3n(Cc3ccccc3)c2=O)CN(C(C)=O)CC4)cc1OC,inactive: 9.77%,
COc1ccccc1NC(=O)c1ccc2c(Cl)c3c(nc2c1)CCCC3,inactive: 21.9%,
CCCCOC(=O)CSc1nnc(-c2ccccc2)o1,inactive: -15.5%,
Cc1ccc(C)c(N2CCN(C(=O)CN3CCSc4ccc(S(=O)(=O)N(C)C)cc43)CC2)c1,inactive: -1.45%,
O=c1c2cccnc2n(Cc2ccccc2F)c(=O)n1Cc1ccccc1Cl,inactive: 14%,
CC(=O)Nc1nonc1-c1nnc(SCC(=O)Nc2cc(C)cc(C)c2)n1C,inactive: 0.689%,
COC(=O)c1ccc(Cl)cc1NC(=O)N1CCCn2nc(C)cc21,inactive: 0.526%,
COc1cc(OC)c(NC(=O)CCCn2nc(C)c3sc4ccccc4c3c2=O)cc1Cl,inactive: 0.398%,
COc1nc(-c2ccc(C)cc2)ccc1-c1noc(-c2ccccc2Br)n1,inactive: 0.82%,
COc1ccc(-c2oc3ncn4nc(-c5ccccc5Br)nc4c3c2-c2ccc(OC)cc2)cc1,inactive: 3.55%,
Cc1oc2ncn(CC(C)C)c(=O)c2c1C(=O)N1CCN(c2ccc(F)cc2)CC1,inactive: 7.48%,
COc1ccccc1CNc1ccc(-c2nc(C)no2)cc1[N+](=O)[O-],inactive: -25.2%,
COc1cccc(NC(=O)/C(C#N)=C\c2cn(Cc3ccc(C)cc3)c3ccccc23)c1,inactive: -4.7%,
COc1cn(CC(=O)Nc2ccc(F)cc2)c(CN2CCCCC2)cc1=O,inactive: 16.8%,
COc1cccc(CSc2nc3n(n2)C(c2cccs2)C(C(=O)Nc2ccccc2C)=C(C)N3)c1 (stereo unspecified),inactive: -0.881%,
CCOC(=O)c1c(N)n(-c2ccc(Cl)c(Cl)c2)c2nc3ccccc3nc12,inactive: 11.1%,
Cc1cccc(Cn2c(CN3CCC(C(=O)NCc4cccnc4)CC3)cc3ccccc32)c1,inactive: -22.3%,

SMILES,"activity change, negative = cytotoxicity",Potency
Cc1ccc(NC(=O)Cn2c(=O)n(-c3ccc(Cl)c(Cl)c3)c(=O)c3c(C)c(C)sc32)c(C)c1,inactive: -14.7%,
CC1=C(C(=O)Nc2ccccc2C)C(c2ccncc2)n2nc(SCc3ccccc3)nc2N1 (stereo unspecified),inactive: 11%,
Cc1ccc(OCCn2cc(C(=O)C3CCCCC3)c3ccccc32)cc1,inactive: -8.19%,
CCOC(=O)c1ccc(NC(=O)CC2C(=O)N(c3cccc(OC)c3)C(=O)N2C2CCCCC2)cc1 (stereo unspecified),inactive: -5.45%,
CCN(CC)CCNC(=O)c1sc2nc3n(c(=O)c2c1C)CCCCC3,inactive: -3.8%,
COc1ccc(OCC2c3cc(OC)c(OC)cc3CCN2C(=O)c2ccc(F)cc2)cc1 (stereo unspecified),inactive: 3.04%,
COc1ccc2cc3cc(C(=O)N4CCN(c5ccc(C(C)=O)cc5)CC4)sc3nc2c1Cl,inactive: -0.756%,
Cc1ccc(-c2cn3c(n2)sc2cc(C(=O)NCCCN4CCCCC4)ccc23)cc1,,active: 3.98 µM
CCOC(=O)c1c(C)oc2nc(C)nc(N3CCN(c4ccc(C(C)=O)cc4)CC3)c12,inactive: 4.88%,
CC(C)(C)OC(=O)N1CCC(c2c(C(=O)NCc3ccc(F)cc3)cnn2-c2ccc(F)cc2)CC1,inactive: -14.1%,
COc1cccc(C(=O)N(Cc2sccc2C)C2CCS(=O)(=O)C2)c1 (stereo unspecified),inactive: 16.6%,
Cc1cc(NC(=O)Cn2c(=O)nc(-c3ccccc3F)c3cc(Cl)ccc32)ccc1Br,inactive: 1.68%,
O=S(=O)(NCc1nc2cccnc2n1Cc1ccc(F)cc1)c1ccc2c(c1)CCCC2,inactive: -6.97%,
CCOC(=O)c1ccc(NC(=O)c2c(NCc3cccs3)sc3c2CCCCC3)cc1,inactive: 12.8%,
Cc1ccc(S(=O)(=O)c2cn(C)c3cc(N4CCCCCC4)c(F)cc3c2=O)cc1,inactive: -1.28%,
O=C(CCSCc1cnn(-c2ccccc2)c1-n1cccc1)NCc1ccccc1F,inactive: -16.2%,
CCOc1ccc(NC(=O)c2cc3c(-c4ccccc4F)nn(C)c3s2)cc1,inactive: 4.35%,
Cc1ccc(Cn2c(=O)n(-c3ccccc3)c(=O)c3ccc(C(=O)NCc4ccco4)cc32)cc1,inactive: -25.8%,
Cn1c(SCc2ccc(F)cc2)nc2c([nH]c3ccccc32)c1=O,inactive: 7.13%,
CCOC(=O)c1cccc(NC(=O)c2ccc3c(c2)nnn3C2CCCC2)c1,inactive: -3.02%,
Cc1ccc(C2c3c(-c4ccccc4O)n[nH]c3C(=O)N2CCCO)cc1 (stereo unspecified),inactive: -5.05%,
O=C(NCCn1cc(SCc2ccc(F)cc2)c2ccccc21)c1c(F)cccc1F,inactive: 9.5%,
Cn1cnc(S(=O)(=O)N2CCCC(C(=O)Nc3ccc(F)cc3Cl)C2)c1 (stereo unspecified),inactive: 2.56%,
Cc1ccc(Cn2c(C(=O)Nc3cccc(Cl)c3)cc3sccc32)cc1,inactive: 1.82%,

SMILES,"activity change, negative = cytotoxicity",Potency
Cn1nnnc1SCCNCc1ccccc1OCc1ccccc1F,inactive: -24.2%,
CCCCc1cc(=O)oc2cc(C)c3c(C)coc3c12,inactive: -1.82%,
COC(=O)c1ccc(NS(=O)(=O)c2ccc(-n3cccn3)cc2)cc1,inactive: 15.2%,
COc1ccc2c(c1)CC(NC(=O)Nc1cc(Cl)ccc1OC)CO2 (stereo unspecified),inactive: -9.14%,
CSc1nc(C)cc(Nc2c(C)cc(C)cc2C)n1,inactive: -7.43%,
COc1cccc(C(=O)Nc2ccc(Cl)c(-c3nc4ccccc4[nH]3)c2)c1,inactive: -14.8%,
CC1=C(C(=O)OCc2ccc(C)cc2)C(c2ccccc2F)CC(=O)N1 (stereo unspecified),inactive: -17.5%,
Cc1ccc2c(=O)cc(C(=O)Nc3sc4c(c3C(=O)NCc3ccco3)CCC4)oc2c1,inactive: 5.34%,
COc1ccc2c(c1)c(=O)c(C(=O)c1ccccc1)cn2CC(=O)Nc1ccc2c(c1)OCCO2,inactive: -17.2%,
O=C(NCc1ccccc1F)C1CCN(c2nnc(-n3cccc3)s2)CC1,inactive: 6.37%,
Cc1cccc(OCCSc2nc3ccccc3n2CC(=O)N2CCOCC2)c1,inactive: 0.488%,
COc1ccccc1CNC(=O)c1ccc(CS(=O)(=O)c2c(Cl)cccc2Cl)o1,inactive: 19.6%,
COc1cccc(-c2nc(S(=O)(=O)c3ccccc3)c(N3CCCCC3)o2)c1,inactive: -38.4%,
CCC(C)NC(=O)CSc1nc2cc3c(cc2c(=O)n1CCCC(=O)NCCc1ccc(OC)c(OC)c1)OCO3 (stereo unspecified),inactive: -0.905%,
CCCn1c(=O)c2sccc2n2c(CCCC(=O)N3CCN(c4ccccc4OC)CC3)nnc12,inactive: 1.99%,
CCOC(=O)c1c(C)[nH]c(C)c1S(=O)(=O)N(C)CC(=O)Nc1cc(Cl)ccc1C,inactive: 12.7%,
CCOC(=O)c1ccc(N2C(=O)c3[nH]nc(-c4ccc(C)cc4)c3C2c2ccc(O)c(OCC)c2)cc1 (stereo unspecified),inactive: -20.2%,
COc1ccc2c(c1)c(=O)c(C(=O)c1ccc(C)c(C)c1)cn2CC(=O)Nc1ccc2c(c1)OCCO2,inactive: 0.329%,
CCOc1ccccc1CNC(=O)CCn1c(=O)c2cccn2c2ccc(F)cc21,inactive: 6.02%,
Cc1ccc(CNc2nc(-c3ccco3)nn2S(C)(=O)=O)cc1,inactive: -0.429%,
COc1ccc(Cl)cc1-n1nnc(-c2nc(-c3ccccc3)no2)c1C,inactive: 2.69%,
Cn1c(SCC(=O)Nc2ccccc2)nnc1-c1ccccc1,inactive: -11.2%,
COc1ccc(-c2nc3cc(C(C)C)ccc3o2)cc1NC(=O)c1ccccc1[N+](=O)[O-],inactive: 0.999%,
COc1ccc(C)cc1NC(=O)CN1c2ccccc2S(=O)(=O)c2ccccc21,inactive: -5.31%,
